Reference: PubChem BioAssay AID686970 (National Center for Advancing Translational Sciences (NCATS), 2013)
Several values for one entry are separate records, joined by “and”; a condition that tells them apart may be missing. Equal entries are not always repeated. The campaign covered roughly 360,000 compounds. About 6,000 (1.7%) were called active. The inconclusive results got no clear call from the source; some entries with a clear call stand among them for comparison. The call rests on the fitted dose curve; in most records, active means well fitted cell-killing curve with a large enough effect; inconclusive means small, poorly fitted or top-dose-only effect, or effect the other way; inactive means flat fitted curve, though single readings scatter. No potency is given beside an inconclusive call; the fits are too rough.

assay: qHTS for induction of synthetic lethality in tumor cells producing 2HG: qHTS for the HT-1080-NT fibrosarcoma cell line; settings: HT-1080-NT fibrosarcoma viability, CellTiter-Glo ATP luminescence, 48 h; activity, negative = less viability: at 46.1 µM (top of the series);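 further: NT is the 2HG producing partner of a matched IDH1 knockdown line; nearly all actives have a fitted effect of over 55% in size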;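 on activity, negative = less viability: 0% = DMSO-treated cells and -100% = media-only wells without cells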
Method in brief: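 Luminescent CellTiter-Glo readout after 48 hours of compound exposure at 37 degrees C defined viability of HT-1080-NT cells. Activity was normalized to DMSO wells and cell-free media wells; concentration-response curves were fitted and assigned curve classes.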
Potency means the concentration at half of the fitted maximal effect; tags describe the fitted curve by direction and shape.

Compound	Potency	activity, negative = less viability
O=C1OC(=O)C2C1[C@@H]1CC[C@H]2O1 (stereo not given in full)	inconclusive [cytotoxic, single point]	
CCOP(=S)(OCC)Oc1nc(Cl)c(Cl)cc1Cl		inactive: 10.2%
COC(=O)C1CN(C#N)N(c2ccc(Cl)cc2)C12c1ccccc1-c1ccccc12 (stereo not given)	active: 3.26 µM	
OCC[n+]1c2ccccc2nc2ccc(N3CCOCC3)cc21		inactive: -5.04%
c1ccc2c(CNC3CCCCCC3)c[nH]c2c1	inconclusive [cytotoxic, single point]	
Cc1cccc(CNCCc2c[nH]c3ccccc23)c1	active: 14.6 µM	
CC(=O)Nc1ccc(NC(=O)CN(c2ccc(C34CC5CC(CC(C5)C3)C4)cc2)S(C)(=O)=O)cc1	inconclusive [cytotoxic, single point]	
NC(CCc1ccccc1)c1csc(NC(=O)Nc2ccccc2Oc2ccccc2)n1 (stereo not given)	active: 23.1 µM	
C/C(=N\NC(N)=S)C12CC3CC(CC(C3)C1)C2	active: 5.01 µM	
CCCCCCn1c(O)c(/C=N/N2CCCCCC2)c(=O)[nH]c1=O		inactive: 14%
CCCCCCOc1ccc(CN2CCN(CCO)CC2)cc1	inconclusive [cytotoxic, single point]	
CCCNC(=O)c1cc2c(c(-c3cccc(-c4cc5ccccc5o4)c3)n1)[C@H](CCO)N(C(=O)NC(C)C)C2	inconclusive [cytotoxic, full curve]	
O=[N+]([O-])c1ccc(N2CCCNCC2)c2ncccc12	inconclusive [cytotoxic, single point]	
O=c1[nH]c2ccccc2n1C1CCN(C(c2ccccc2OC(F)(F)F)c2nnnn2-c2ccc3c(c2)OCCO3)CC1 (stereo not given)	inconclusive [cytotoxic, single point]	
CCCCCCCCN1C(=O)[C@H](CC(=O)NCCCC)C[C@@]2(C(=O)OCC)CCCC=C12	inconclusive [cytotoxic, single point]	
Clc1ccc(C(c2ccc(Cl)cc2)n2cc[n+](CC(OCc3ccc(Cl)cc3Cl)c3ccc(Cl)cc3Cl)c2)cc1 (stereo not given)	active: 5.17 µM	
CC(C)(C)n1nnnc1C(c1cccc2ccccc12)N1CCC2(CC1)C(=O)NCN2c1ccccc1 (stereo not given)	inconclusive [cytotoxic, single point]	
c1ccc2c3c([nH]c2c1)CNCC3		inconclusive: -30.2% [cytotoxic]
Cc1ccc(/C=C2\C(=O)NC(=O)N(CCc3ccc(F)cc3)C2=O)o1	inconclusive [cytotoxic, single point]	
COc1ccc(CCNC(=O)c2c(N)n(CCN3CCOCC3)c3nc4ccccc4nc23)cc1OC	inconclusive [cytotoxic, single point]	
CCCCCCCCCCCCCCCC[n+]1ccccc1	active: 8.2 µM and active: 11.6 µM	
CCC(=NCC1CCCO1)c1c(O)n(-c2ccc(Cl)cc2)c(=O)[nH]c1=O (stereo not given)		inactive: -1.68%

Compound	Potency	activity, negative = less viability
CN(C)c1ccc(C(=O)N/N=C/C23CC[C@@H](O)CC2(O)CC[C@@H]2[C@@H]3CCC3(C)C(C4=CC(=O)OC4)CCC23O)cc1 (stereo not given in full)	inconclusive [cytotoxic, partial curve]	
Oc1cc(O)cc(/C=C/c2ccc(O)cc2O)c1	inconclusive [cytotoxic, partial curve]	
Nc1ncnc2c1ncn2[C@@H]1O[C@H](COP(=O)(O)OP(=O)(O)OP(=O)(O)O)[C@@H](O)[C@H]1O	inconclusive [cytotoxic, single point]	
C[C@]12CC[C@@H]3c4cc(O)c(O)cc4CC[C@H]3[C@@H]1CC[C@@H]2O	inconclusive [cytotoxic, partial curve]	
CC1=CC2OC3CC4OC(=O)C=CC=CC(C(C)O)OCC(O)C(C)CC(=O)OCC2(CC1O)C4(C)C31CO1 (stereo not given)	active: 0.0461 µM	
COc1ccc(C(c2nnnn2-c2ccc3c(c2)OCCO3)N2CCC(n3c(=O)[nH]c4ccccc43)CC2)cc1 (stereo not given)	active: 18.4 µM	
CN(C)CCN(CC1CCCN(Cc2ccccc2F)C1)C(=O)Cc1ccc(F)c(F)c1 (stereo not given)	inconclusive [cytotoxic, partial curve]	
O=C(O)c1cc2ccccc2oc1=O	inconclusive [cytotoxic, full curve, poor fit]	
COc1ccc(CN2Cc3cnnn3-c3ccccc3C2c2ccccc2)cc1 (stereo not given)	inconclusive [cytotoxic, single point]	
N=c1c2c(n(Cc3ccc(Cl)cc3Cl)c3c1CCC3)CCCC2	active: 20.6 µM	
CC(=O)c1c(O)c(C)c(O)c(Cc2c(O)c3c(c(C(=O)/C=C/c4ccccc4)c2O)OC(C)(C)C=C3)c1O	inconclusive [cytotoxic, single point]	
NC(Cc1ccc(C(F)(F)F)cc1)c1csc(Nc2nncc3ccccc23)n1 (stereo not given)	inconclusive [cytotoxic, single point]	
CCN(CC)C(=O)c1ccc(NC(=O)c2cccc(C(F)(F)F)c2)cc1		inactive: 2.42%
COC(=O)C1=C(c2ccc(-c3ccccc3)c(F)c2)C[C@@H]2CC[C@H]1N2C(=O)N1CCC(C)CC1	inconclusive [cytotoxic, single point]	
CCOC(=O)C1(CCc2ccccc2)CCN(Cc2cccc3c2OCO3)CC1	inconclusive [cytotoxic, single point]	
CC12CC[C@H]3[C@@H](CCC4(O)C[C@H](O)CCC34/C=N/NC(=O)c3ccccc3[N+](=O)[O-])C1(O)CCC2C1=CC(=O)OC1 (stereo not given in full)	inconclusive [cytotoxic, single point]	
O=C(C1CC(c2ccc(F)cc2)=NO1)N1CCC2(CC1)OCCO2 (stereo not given)		inactive: 2.01%
CCCCCCN=C(C)c1c(O)n(CCCC)c(=O)[nH]c1=O		inactive: -0.266%
CCOC(=O)[C@]12Cc3ccccc3[C@H]1N(C)C(=O)c1cc(OC)ccc12	inconclusive [cytotoxic, single point]	
CC(C)(C)c1csc(NC(=O)Nc2ccccc2)n1	inconclusive [cytotoxic, single point]	
NC(Cc1ccc(Cl)cc1)c1csc(Nc2cnccn2)n1 (stereo not given)	inconclusive [cytotoxic, single point]	
COc1cccc(OC)c1C1=NCC(=O)Nc2c1oc1ccc(Br)cc21	inconclusive [cytotoxic, full curve]	

Compound	Potency	activity, negative = less viability
CC(=O)O/C(=C1\CC2C3CC=C4CC(OC(C)=O)CCC4(C)C3CCC2(C)C1=O)C(F)(F)F (stereo not given)		inactive: 0.709%
C/C=C(\C)C(=O)N[C@@H](c1ccccc1)[C@@H](O)C(=O)O[C@H]1C[C@@]2(O)[C@@H](OC(=O)c3ccccc3)C3[C@](C)(C(=O)[C@H](OC(C)=O)C(=C1C)C2(C)C)[C@H](O)C[C@H]1OC[C@@]31OC(C)=O (stereo not given in full)	active: 0.0461 µM	
CCOC(=O)[C@]12Cc3cc(OC)ccc3[C@H]1N(C(C)C)C(=O)c1ccccc12	active: 11.6 µM	
CCOC(=O)[C@]12Cc3ccccc3[C@H]1N(C1CCCCC1)C(=O)c1cc(OC)ccc12	active: 5.8 µM	
COc1ccc(N/N=C/c2c(O)n(-c3ccc(C)c(C)c3)c(=O)[nH]c2=O)cc1		inconclusive: -27.5% [cytotoxic]
O=[N+]([O-])c1cc(Cl)c(O)c(-[n+]2c(-c3ccccc3)cc(-c3ccccc3)cc2-c2ccccc2)c1	inconclusive [cytotoxic, partial curve]	
COc1ccc2cc1Oc1ccc(cc1)C[C@H]1c3cc(c(OC)cc3CCN1C)Oc1c(OC)c(OC)cc3c1[C@H](C2)N(C)CC3	active: 5.8 µM	
Cc1ccc(OC(F)F)c(N2C(=O)C3C4CCC(O4)C3C2=O)c1 (stereo not given)		inactive: 12.3%
Cc1ccccc1-n1c(O)c(/C=N/NC(=O)c2ccncc2)c(=O)[nH]c1=O		inactive: 18.5%
CC(C)CCn1c(N)c(C(=O)OCC2CCCO2)c2nc3ccccc3nc21 (stereo not given)	inconclusive [cytotoxic, single point]	
COC(=O)C(O)(c1ccc(NC(=O)NC2CCCCC2)cc1)C(F)(F)F (stereo not given)		inactive: 0.934%
CN1CC2CN(Cc3ccccc3)S(=O)(=O)C2C1 (stereo not given)	inconclusive [rising, single point]	
CC[C@H]1CN2CCc3cc(OC)c(OC)cc3C2C[C@@H]1C[C@H]1NCCc2cc(OC)c(OC)cc21 (stereo not given in full)	active: 0.0517 µM	
Nc1nc(F)nc2c1ncn2[C@@H]1O[C@H](CO)[C@@H](O)[C@H]1O	active: 0.651 µM	
CN(C)c1ccc(/C=C/C=C2/C(=O)NC(=O)N(c3ccccc3)C2=O)cc1	active: 4.61 µM	
CC(C)c1oc(=O)cc2c1[C@@H](O)[C@H]1OC(=O)[C@@]3(C)CC[C@@H](O)[C@@]2(C)C13 (stereo not given in full)	inconclusive [cytotoxic, single point]	
CCOc1ccc(N2C(=O)NC(=O)/C(=C\c3cc(OC)c(OC)cc3[N+](=O)[O-])C2=O)cc1	inconclusive [cytotoxic, single point]	
CCOC(=O)[C@]12Cc3c(cc(OC)c(OC)c3OC)[C@H]1N(C(C)C)C(=O)c1ccccc12	inconclusive [cytotoxic, single point]	
CN(C)C(=O)O/N=C(\N)COc1ccc(C(C)(C)C)cc1	active: 11.6 µM	
O=C(c1c[nH]cc1-c1ccccc1)c1cccc2ccccc12	active: 23.1 µM	
O=C1NCN(c2ccccc2)C12CCN(C(c1cc3ccccc3o1)c1nnnn1Cc1ccccc1)CC2 (stereo not given)	inconclusive [cytotoxic, single point]	
